Measurements published in US20020110853A1 (IMMUNEX, published 2002).

Target: T1, human full length TWEAK, expressed on transfected CV-1 cells (human, UniProt O43508 1-249)
T1 construct: whole, on cells; also called TWEAK ligand
T1 sequence (looked up): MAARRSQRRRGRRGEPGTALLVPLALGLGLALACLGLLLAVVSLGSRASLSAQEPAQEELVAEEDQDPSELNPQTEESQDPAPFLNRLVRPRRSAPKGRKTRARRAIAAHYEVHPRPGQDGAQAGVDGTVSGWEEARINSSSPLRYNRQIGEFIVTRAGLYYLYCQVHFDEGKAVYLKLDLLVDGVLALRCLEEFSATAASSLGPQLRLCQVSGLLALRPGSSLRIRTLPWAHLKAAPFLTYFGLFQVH
Experiment: Scatchard analysis, 125I-TWEAKR-Fc on CV-1 cells transfected with human full length TWEAK mixed 1:30 with Raji cells, 4 degrees Celsius
Source text: Free and bound probe was separated by microfuging the samples through a phalate oil mixture in plastic tubes. Supernatants and pellets were gamma-counted.

Ka: ~4.5e+08 M⁻¹
B1: human TWEAKR-Fc (TWEAKR extracellular domain fused to Fc portion from human IgG1) (Fc fusion)
chain: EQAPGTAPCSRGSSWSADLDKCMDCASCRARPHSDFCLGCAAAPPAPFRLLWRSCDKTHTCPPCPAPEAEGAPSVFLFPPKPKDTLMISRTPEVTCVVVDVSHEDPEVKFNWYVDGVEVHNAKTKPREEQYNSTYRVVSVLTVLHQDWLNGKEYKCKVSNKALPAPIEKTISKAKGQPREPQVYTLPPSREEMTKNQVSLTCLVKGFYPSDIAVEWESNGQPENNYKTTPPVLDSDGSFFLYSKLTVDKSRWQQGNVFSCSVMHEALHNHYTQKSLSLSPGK
modifications: 125-I labeled in the Scatchard assay
notes: the assays name only TWEAKR-Fc; also called huTWEAKR-Fc
